# Data as given in PubChem BioAssay AID686978 (National Center for Advancing Translational Sciences (NCATS), 2013).
# Values joined by “and” are separate entries in the source; they are usually repeats but may differ in a detail not shown here. Equal entries are not always repeated. The campaign covered roughly 420,000 compounds. About 64,000 (15%) were called active. This list was built around the results that the source calls inconclusive (neither active nor inactive); the mix of calls is not that of the screen. Calls follow the shape of the dose curve; as a rule, active = well fitted inhibition curve with a large enough effect; inconclusive = small, poorly fitted or top-dose-only effect; inactive = flat fitted curve, though single readings scatter. Potencies of inconclusive entries are doubtful fits and often do not repeat.
# Assay: qHTS for Inhibitors of human tyrosyl-DNA phosphodiesterase 1 (TDP1): qHTS in cells in absence of CPT; also: nearly all actives have a fitted effect of over 55% in size
# Conditions: DT40 Tdp1-/- hTDP1 cells, no CPT, ATP luminescence, 48 h; activity change, negative = growth inhibition: at 46.2 µM (top of the series) unless noted
# In short: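 Chicken DT40 Tdp1-/- cells complemented with human TDP1, screened without camptothecin (DMSO vehicle only), 400 cells/well. Compounds pin-transferred, cells incubated at 37 °C for at least 48 hr. Growth read as ATP-dependent luminescence (CellTiter-Glo, 30 min at RT).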
# % is scaled to controls: 0 for no effect and ±100 for the full control effect; potency is read from the fitted curve at half-maximal effect; tags tell the direction and shape of the fitted curve.
SMILES,"activity change, negative = growth inhibition",Potency
O=Cc1ccc2cccnc2n1,inconclusive: -30.6% [inhibitor],–
Cc1[nH]cnc1C(=O)N/N=C/c1ccc([N+](=O)[O-])s1,–,active: 10.3 µM
Cc1nn2c(CN(C(=O)COc3ccccc3)c3ccccc3)nnc2c2ccccc12,–,"inconclusive: 18.4 µM [inhibitor, single point]"
COc1cnn(-c2ccc(C)cc2)c(=O)c1Cl,–,inactive
COc1cc(OC)cc(-c2cc3nc(C)c(CCC(=O)Nc4ccccc4OC)c(C)n3n2)c1,–,active: 23.1 µM
O=C(Nc1ccc([N+](=O)[O-])cc1)c1cn(-c2ccccc2)nc1-c1cc2ccccc2o1,–,active: 10.3 µM
CC1(C)Cc2c(cnn2-c2ccccc2)-c2c1c1ccccc1n2CC(O)CBr (configuration not stated),–,"inconclusive: 18.4 µM [inhibitor, single point]"
COCCNC(=S)N(CCc1c(C)[nH]c2ccccc12)Cc1cccnc1,–,"inconclusive: 29.1 µM [inhibitor, single point]"
CCC1Oc2nc(SC)nnc2-c2ccccc2N1C(=O)c1ccccc1 (configuration not stated),–,"inconclusive: 16.4 µM [inhibitor, partial curve]"
Cc1ccc(-c2csc(NC(=O)CCNC(=O)c3ccc(Cl)cc3)n2)cc1,–,"inconclusive: 7.31 µM [inhibitor, partial curve]"
O=C(C1CCCN(S(=O)(=O)c2ccccc2)C1)N1CCCCC1 (configuration not stated),–,inactive
Cc1ccc(SCCN2CCC(C(C)(C)C)CCC2=O)cc1 (configuration not stated),–,"inconclusive: 15.8 µM [inhibitor, partial curve, poor fit] and inconclusive: 23.1 µM [inhibitor, single point]"
CCOC(=O)c1ccc(N2CN(C3CCCCC3)CNC2=S)cc1,–,"inconclusive: 13 µM [inhibitor, partial curve]"
CC(=O)c1ccc(NC(=O)c2c(C)nn(-c3ccccc3)c2Cl)cc1,–,inactive
Cc1nc(C)c(-c2nnc(-c3ccc(C(C)(C)C)cc3)o2)cc1C(=O)NN,–,active: 23.1 µM
CC(=O)c1ccc(S(=O)(=O)Nc2ccc(C(=O)N3CCC3)cc2)cc1,–,inactive
CC1CC2=C(CC1/C=N/NC(N)=S)C(C)(C)CCC2 (configuration not stated),–,active: 3.26 µM
Cc1nn(Cc2ccccc2Cl)c(C)c1NC(=O)c1cc(-c2ccc(F)cc2)on1,–,inactive
O=C(COC(=O)c1cc([N+](=O)[O-])ccc1NCCO)Nc1ccc2c(c1)OCO2,–,inactive
COCCNC(=O)Cn1c(=O)c2cccn2c2ccc(F)cc21,–,inactive
O=C1c2ccccc2C(c2nnnn2-c2ccc3c(c2)OCCO3)N1C1CC1 (configuration not stated),–,inactive
Cn1c(N2CCN(S(=O)(=O)c3ccc(F)cc3)CC2)nc2ccccc21,–,"inconclusive: 9.2 µM [inhibitor, partial curve]"
CCN(CC)S(=O)(=O)c1cccc(NC(=O)CC2CCCC2)c1,–,"inconclusive: 18.4 µM [inhibitor, partial curve]"
O=C(NCCCN1CCOCC1)c1cc(-c2cccc(O)c2)on1,–,inactive

SMILES,"activity change, negative = growth inhibition",Potency
Cc1cc(NC(=O)CCN2CCCCC2)ccc1Br,–,"inconclusive: 7.31 µM [inhibitor, partial curve, poor fit]"
Cc1ccc(NC(=O)NNC(=O)Cn2nc(-c3ccccc3)c(-c3ccccc3)c(C#N)c2=O)cc1,–,"inconclusive: 23.1 µM [inhibitor, single point]"
COc1cccc(-n2c(SCC(=O)NCc3ccco3)nnc2-c2c[nH]c3ccccc23)c1,–,"inconclusive: 29.1 µM [inhibitor, single point]"
Cc1cc(=O)[nH]c(SCC(=O)Nc2cccc(S(=O)(=O)N3CCOCC3)c2)n1,–,inactive
C=CCc1cc(/C=C2/NC(=S)NC2=O)cc(OC)c1O,–,active: 20.6 µM
Cc1ccc2nc(Cl)c(/C=N/NC(=O)[C@H]3C[C@@H]3c3ccccc3)cc2c1,–,"inconclusive: 18.4 µM [inhibitor, single point]"
CCc1ccc2[nH]c(=O)c(CN(Cc3ccc(OC)cc3)Cc3nnnn3CCOC)cc2c1,–,"inconclusive: 20.6 µM [inhibitor, single point]"
Cc1ccc(N=Nc2ccc(O)cc2)c(Br)c1,–,inactive
COc1ccccc1NC(=O)c1c(Nc2ccccc2C)sc(C(=O)Nc2cccc(Cl)c2)c1N,–,"inconclusive: 29.1 µM [inhibitor, single point]"
COc1ccc(CCNc2nc(-c3cccc(NC(C)=O)c3)cs2)cc1OC,–,"inconclusive: 29.1 µM [inhibitor, single point]"
CCOc1ccc(N2C(=O)C(CC(=O)Nc3ccc(F)cc3)N(Cc3ccccn3)C2=S)cc1 (configuration not stated),–,"inconclusive: 16.4 µM [inhibitor, single point]"
Cc1ccc(NC(=O)CN2C(=O)NC3(CCc4ccccc43)C2=O)cc1S(=O)(=O)N1CCCCC1 (configuration not stated),–,"inconclusive: 16.4 µM [inhibitor, single point]"
Cc1ccccc1C(=O)Nc1c(C(=O)Nc2cccc(F)c2)oc2ccccc12,–,"inconclusive: 25.9 µM [inhibitor, single point]"
COc1cc(-c2cnc3c(NC=O)cc(-c4cccc(NC(C)=O)c4)cn23)cc(OC)c1OC,–,active: 0.517 µM
O=C(CCSc1nnc2ccc3ccccc3n12)Nc1ccc(F)cc1,–,"inconclusive: 18.4 µM [inhibitor, single point]"
O=C1C(=O)c2ccccc2C(O)=C1c1ccccc1F,–,"inconclusive: 29.1 µM [inhibitor, single point]"
CCSc1oc(-c2cccs2)nc1S(=O)(=O)c1ccc(Br)cc1,–,"inconclusive: 29.1 µM [inhibitor, single point]"
COc1ccc(S(=O)(=O)N2CCNC(=O)C2)cc1Br,–,inactive
CCCn1nnnc1SCC(=O)N1CCCCC1,–,inactive
CC(=O)c1cccc(NC(=O)c2cccc3c(-c4cccc(C(N)=O)c4)coc23)c1,–,active: 11.6 µM
N/C(=N\OC(=O)CSc1ccccc1)c1ccc([N+](=O)[O-])cc1,–,inactive
O=S(=O)(Nc1ncnc2sc3c(c12)CCC3)c1cc(F)ccc1F,–,inactive
Cc1ccc2c(CN3CCN(S(=O)(=O)c4ccc5c(c4)OCCO5)CC3)cc(=O)oc2c1C,–,"inconclusive: 25.9 µM [inhibitor, single point]"
CCN(Cc1ccncc1)Cc1c(O)ccc2ccccc12,–,"inconclusive: 29.1 µM [inhibitor, single point]"

SMILES,"activity change, negative = growth inhibition",Potency
COC(=O)c1ccc(CSc2cc(C)c3cc(C)cc(C)c3n2)o1,–,"inconclusive: 29.1 µM [inhibitor, single point]"
COc1ccc(CCNC(=O)c2cc(=O)c3cc(C)ccc3o2)cc1OC,–,active: 20.6 µM
Cc1ccc2nc(-c3ccco3)c(CC3CCCCC3)n2c1,–,active: 10.3 µM
O=C(NCc1ccc2c(c1)OCO2)c1ccc2c(c1)N(Cc1ccccc1F)C(=O)c1ccccc1S2=O (configuration not stated),–,active: 20.6 µM
CC1(C(=O)NS(=O)(=O)c2ccccc2)CCN1C(=O)C/C=C/c1ccccc1 (configuration not stated),–,"inconclusive: 6.51 µM [inhibitor, single point]"
CC1CCCCN1C(=S)Nc1ccc(OC(F)F)cc1 (configuration not stated),–,"inconclusive: 8.2 µM [inhibitor, partial curve]"
CCOC(=O)c1ccc(NC(=O)CCc2nnc3ccc(N4CCCC4)nn23)cc1,–,"inconclusive: 18.4 µM [inhibitor, single point]"
CN(C(=O)c1ccc(Br)o1)C1(C)CCS(=O)(=O)C1 (configuration not stated),–,inactive
CCOC(=O)c1c(-c2ccccc2)oc2ccc(N(C(C)=O)S(=O)(=O)c3ccccc3)cc12,–,"inconclusive: 23.1 µM [inhibitor, single point]"
CCOC(=O)N1CCN(c2nc(-c3ccccc3)c3ccccc3n2)CC1,–,active: 25.9 µM
COC(=O)C1=C(C)N(c2ccc(C)c(C)c2)/C(=C/c2ccco2)C1=O,–,"inconclusive: 29.1 µM [inhibitor, single point]"
O=C(Nc1ccc(F)cc1)C1CCN(c2nnnn2-c2ccccc2)CC1,–,"inconclusive: 23.1 µM [inhibitor, single point]"
OCC[C@@H]1C[C@H](O)[C@@H](O)[C@]2(CCCO2)O1,–,inactive
COC(=O)[C@@]12C[C@@H](CC(=O)NCc3ccccc3)C(=O)N(Cc3ccco3)C1=CCC(C)(C)C2,–,"inconclusive: 29.1 µM [inhibitor, single point]"
COc1ccc(S(=O)(=O)NCC(c2ccc(C)cc2)N2CCN(C)CC2)cc1 (configuration not stated),–,"inconclusive: 16.4 µM [inhibitor, partial curve]"
Cc1ccc(C(=O)N2CCN(c3cccc(Cl)c3)CC2)cc1C,–,active: 25.9 µM
C#CCOCCOCCOCCNc1nc(N2CCOCC2)nc(N2CCN(C(=O)Cn3cc(CCCN=C(N)N)nn3)CC2)n1,–,inactive
COc1cc(SC)ccc1C(=O)OCC(=O)N1CC(=O)Nc2ccccc21,–,"inconclusive: 0.411 µM [inhibitor, full curve, poor fit]"
COC(=O)Cc1c(C)nc(SCc2ccccc2)[nH]c1=O,inconclusive: -32.4% [inhibitor],–
N=c1oc2ccc3ccccc3c2cc1-c1nnc2n1CCCCC2,–,"inconclusive: 18.4 µM [inhibitor, partial curve]"
c1ccc(-c2cc3c(ccc4nonc43)nn2)cc1,–,"inconclusive: 16.4 µM [inhibitor, single point]"
O=S(=O)(NCC(c1ccco1)N1CCN(c2ccccc2)CC1)c1ccccc1 (configuration not stated),–,"inconclusive: 29.1 µM [inhibitor, single point]"
COc1cc(NC(=S)NCc2cccnc2)cc(OC)c1,–,inactive
CCN(CC)c1ccc(/C=N/NC(=S)NCc2ccc(OC)cc2)cc1,–,"inconclusive: 29.1 µM [inhibitor, single point]"
